The text below walks through data of article PMC9640623, “SAMHD1 deacetylation by SIRT1 promotes DNA end resection by facilitating DNA binding at double-strand breaks” (Nature Communications, 2021).

This data set concerns the molecule itself. Kind of data set: SEC; 5 μM SAMHD1 preincubated with 3 mM dGTP; analytical Superdex 200 (10 × 300 mm), 0.5 mL/min; 20 mM Tris-HCl pH 7.8, 50 mM NaCl, 10 μM dGTP, 5 mM MgCl2, 5% glycerol; dGTP-induced tetramer.

B1: 6xHis-SAMHD1 K354R (natural protein)
chain: not shown
notes: SAMHD1, full-length, from pET14b-6xHis-SAMHD1 by site-directed mutagenesis; Tetramer only stated after preincubation with dGTP; source: E. coli BL21 Rosetta, purified (His-Trap, Superdex 200 SEC); not shown: His6, N-terminal, kept
In general, stoichiometry N refers to a count of units in the complex or per binding partner. For the protein B1, the “stoichiometry N” value worked out at 4.

B2: 6xHis-SAMHD1 K354Q (natural protein)
chain: not shown
notes: SAMHD1, full-length, from pET14b-6xHis-SAMHD1 by site-directed mutagenesis; acetyl mimic; Tetramer only stated after preincubation with dGTP; source: E. coli BL21 Rosetta, purified (His-Trap, Superdex 200 SEC); not shown: His6, N-terminal, kept
With B2, the “stoichiometry N” value was 4.
